# Measured values: publication PMC4336329 (PLoS ONE, 2015)
# The whole screen tested about 310,000 compounds, of which about 2,200 (0.71%) showed an effect of 50% or more. Effects have a minus sign here. Some of the results follow.
# Target: human ether-à-go-go-related gene (hERG) potassium channel (human, UniProt Q12809)
# Experiment: primary screen, population patch clamp on CHO cells stably expressing hERG
# Sequence of human ether-à-go-go-related gene (hERG) potassium channel (Q12809 whole entry, looked up): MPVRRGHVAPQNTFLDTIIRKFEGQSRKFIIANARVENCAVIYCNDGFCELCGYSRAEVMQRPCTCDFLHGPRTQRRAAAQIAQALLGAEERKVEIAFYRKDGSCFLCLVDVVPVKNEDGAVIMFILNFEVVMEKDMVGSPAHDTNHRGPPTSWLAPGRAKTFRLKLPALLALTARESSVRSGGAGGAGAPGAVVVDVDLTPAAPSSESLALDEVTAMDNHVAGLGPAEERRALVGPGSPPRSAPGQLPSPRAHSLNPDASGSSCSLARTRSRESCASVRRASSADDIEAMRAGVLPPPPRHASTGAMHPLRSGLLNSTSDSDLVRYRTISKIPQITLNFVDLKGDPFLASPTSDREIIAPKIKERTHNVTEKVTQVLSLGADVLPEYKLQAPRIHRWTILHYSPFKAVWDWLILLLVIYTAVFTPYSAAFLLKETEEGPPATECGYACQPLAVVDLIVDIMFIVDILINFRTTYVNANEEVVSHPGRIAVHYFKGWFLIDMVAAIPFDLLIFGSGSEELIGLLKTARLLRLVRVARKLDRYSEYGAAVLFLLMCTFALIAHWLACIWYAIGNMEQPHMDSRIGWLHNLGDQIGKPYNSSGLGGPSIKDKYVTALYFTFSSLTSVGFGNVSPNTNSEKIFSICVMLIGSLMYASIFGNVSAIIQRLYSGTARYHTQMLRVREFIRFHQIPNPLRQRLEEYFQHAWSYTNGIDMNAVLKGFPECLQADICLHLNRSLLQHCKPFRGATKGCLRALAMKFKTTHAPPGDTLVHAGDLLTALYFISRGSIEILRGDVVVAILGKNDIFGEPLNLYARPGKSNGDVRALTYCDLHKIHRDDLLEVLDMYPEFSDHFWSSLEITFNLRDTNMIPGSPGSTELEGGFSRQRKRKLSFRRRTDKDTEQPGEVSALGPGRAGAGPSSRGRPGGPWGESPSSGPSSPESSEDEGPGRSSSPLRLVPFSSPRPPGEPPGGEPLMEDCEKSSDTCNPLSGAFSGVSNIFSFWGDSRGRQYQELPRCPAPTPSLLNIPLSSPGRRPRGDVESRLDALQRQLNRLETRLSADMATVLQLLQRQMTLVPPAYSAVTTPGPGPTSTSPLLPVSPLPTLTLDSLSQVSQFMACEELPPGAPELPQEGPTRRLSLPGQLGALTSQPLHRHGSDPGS
row,SMILES,"hERG current change (%, negative = inhibition) at 1uM [%]"
1,O=C(NCC1CC1)[C@]1(C(F)(F)F)C[C@H](CCC2CCCCC2)CCCO1,12.3
2,COc1cc(/C=C(/C(=O)c2cccs2)c2nc3ccccc3[nH]2)cc(OC)c1O,-3.89
3,CC(C)c1cc(CNC(=O)CC2C(=O)NCCN2CC2CCCCC2)on1 (stereo not shown),11.9
4,Cc1ccc(S(=O)(=O)N2CCN(CC(=O)N/N=C\c3ccccn3)CC2)cc1,-4.83
5,CCCCn1c(N)c(N(CCOC)C(=O)C(C)N2C(=O)c3ccccc3C2=O)c(=O)[nH]c1=O (stereo not shown),19.1
6,CCc1nc(-c2ccccc2)cc(=O)[nH]1,8.41
7,COc1cc(CN(C)Cc2cc(=O)oc3cc(C)c(Cl)cc23)ccc1OC(F)F,11.1
8,O=C(NCCC1CCCCN1S(=O)(=O)c1ccccc1)C(=O)NCc1cccnc1 (stereo not shown),8.76
9,O=C(Cc1cccs1)N(c1ccc(F)cc1)C1(C(=O)NC2CCCCC2)CCCC1,2.72
10,Cc1cccc(NC(=O)C2CC(=O)N(Cc3ccccc3)C2)n1 (stereo not shown),14
11,CCCn1c(SCC(=O)Nc2nc(-c3ccc(OC)cc3)cs2)nc2c1c(=O)n(C)c(=O)n2C,11.2
12,COc1ccc(C)cc1N/C(N)=N/c1nc(C)cc(C)n1,-64.7
13,Cc1cccc(N2CCN(C(=O)Cn3cccc3C(=O)c3ccccc3)CC2)c1C,12.2
14,COc1ccc(Nc2nnc(C)c3ccccc23)cc1C(N)=O,16.1
15,CCc1noc2c1/C(=N\O)CC(c1ccccc1)C2 (stereo not shown),4.04
16,COc1ccc(N2CCOCC2)c(NC(=O)c2ccco2)c1,-41.5
17,COc1cc(CNCCCCO)ccc1OCc1ccccc1F.Cl,2.85
18,Clc1ccc(-c2nc3nc4ccccc4nc3n2Cc2ccco2)cc1,-0.148
19,Cc1cc(C)n2c(SCc3ccc(C#N)cc3)nnc2n1,-0.405
20,COc1cc(C2NC(=O)NC(C)=C2C(=O)OCC2CCCCC2)cc(Cl)c1O (stereo not shown),9.92
21,O=S1(=O)N=C(N2CCCc3ccccc32)c2ccccc21,-6.76
22,COCCCn1c(SCC(=O)Nc2ccc(C(=O)OC)cc2)nc2ccccc2c1=O,-22.3
23,O=C(NCc1ccco1)N1c2ccccc2Sc2ccccc21,11.5
24,C/C(=N/NC(=O)CSc1nc2ccccc2n1C)c1ccncc1,21.7
25,CCOC(=O)C(NC(=O)c1ccc(OC)cc1)(N1CCOCC1)C(F)(F)F (stereo not shown),6.95
26,NC(=O)N/N=C(/CCCCCC/C(=N\NC(N)=O)c1ccccc1)c1ccccc1,2.74
27,C=CCn1c(SCC(=O)NC(=O)Cc2ccccc2)nc2ccccc2c1=O,11.5
28,O=C(c1ccc(Cl)c(S(=O)(=O)N2CCOCC2)c1)N1CCN(Cc2ccccc2)CC1,2.61

row,SMILES,"hERG current change (%, negative = inhibition) at 1uM [%]"
1,COc1ccc(C(Nc2ccccn2)c2c(NC(=O)c3ccco3)sc(C)c2C)cc1 (stereo not shown),0.957
2,O=C(CNC(=O)C(c1ccccc1)c1ccccc1)OCC(=O)c1cccs1,3.61
3,O=C(c1ccc(F)cc1)C1CCN(C(=O)Nc2ccccc2Cl)CC1,7.41
4,CC1CN(C2CCCCC2)c2nc3c(c(=O)n(C)c(=O)n3C)n2C1 (stereo not shown),0.489
5,Cc1cc(=O)oc2cc(OC(C)C(=O)NC3(C#N)CCCCC3)ccc12 (stereo not shown),1.47
6,N#Cc1ccc(NC(=O)CCNC(=O)c2ccco2)cc1Cl,14.1
7,Cc1cc([N+](=O)[O-])ccc1NCc1ccccc1[N+](=O)[O-].O=C(O)C(=O)O,11.5
8,CC(C)(C)CC(C)(C)NCC(O)COc1c(F)cc(Br)cc1F.Cl (stereo not shown),-10
9,OCCC1CN(Cc2cnc(-c3cccc4ccccc34)nc2)CCN1C1CCCCC1 (stereo not shown),8.03
10,CN(C1CCCCC1)S(=O)(=O)c1ccc(SCC(=O)NC(C)(C)C)nc1,17.1
11,CC(=O)N(C)c1ccc(N=Cc2cc3c(cc2[N+](=O)[O-])OCO3)cc1,19.5
12,Cc1nn(-c2nc3ccccc3[nH]2)c(N)c1-c1ccccc1,7.57
13,CCOc1ccc(NC(=S)N2CCN(CCN3C(=O)c4cccc5cccc(c45)C3=O)CC2)cc1,8.64
14,CCOC(=O)C(=Cc1ccc(OCc2ccc([N+](=O)[O-])cc2)c(OC)c1)C(=O)OCC,15.7
15,Cc1nc2c(Cl)cccc2[nH]1,3.38
16,COc1ccc2oc(=O)cc(-c3cc4cccc(OC)c4o3)c2c1,13.2
17,CN(C)c1ncccc1-c1nc2ccccc2s1,8.21
18,O=C(O)c1ccc(Nc2nc3ccc(Cl)cc3[nH]2)cc1,16.4
19,CCC(NC(=O)OC(C)(C)C)C(=O)Oc1ccc2c3c(c(=O)oc2c1)CCC3 (stereo not shown),10.8
20,CCOC(=O)C1CCCN(c2c(NCC3CCCN3CC)c(=O)c2=O)C1 (stereo not shown),16.7
21,O=C(NNC(=O)c1ccc(Cl)cc1Cl)c1ccncc1,11.3
22,COc1ccc(N(C)S(=O)(=O)c2cccc(C(=O)Nc3ccc(N4CCOCC4)cc3)c2)cc1,3.27
23,CN(Cc1ccccc1)C(NC(=O)c1ccccc1)C(Cl)(Cl)Cl (stereo not shown),3.67
24,CCOC(=O)c1ccc(-c2ccc3c(=O)c4ccccc4n(C)c3c2)cc1F,14.2
25,CSc1ccc(-c2nnn(Cc3ccccn3)n2)cc1,3.61
26,O=C(CSCCO)Nc1cccc([N+](=O)[O-])c1,10
27,Cc1cc(C(=O)Nc2ccccc2C(=O)O)ccc1NC(=O)COc1cccc([N+](=O)[O-])c1,14.4
